Assay results reported in article PMC6294520.
Numbering of substitutions follows the chain as printed. Names may count otherwise. Results are given in words; binding and its absence hold for the method and conditions named. For some of these results: Binding seen in cells or lysates may run through a third protein. Some binding calls cover weakened binding; strength is not graded here. For some of these results: Sequences can lack the tags named with a protein. Blank lines part the entries; values can stand above or below the molecule they belong to.

Amino acid sequences for entries named in this document (tags omitted).
UniProt A5YKK6: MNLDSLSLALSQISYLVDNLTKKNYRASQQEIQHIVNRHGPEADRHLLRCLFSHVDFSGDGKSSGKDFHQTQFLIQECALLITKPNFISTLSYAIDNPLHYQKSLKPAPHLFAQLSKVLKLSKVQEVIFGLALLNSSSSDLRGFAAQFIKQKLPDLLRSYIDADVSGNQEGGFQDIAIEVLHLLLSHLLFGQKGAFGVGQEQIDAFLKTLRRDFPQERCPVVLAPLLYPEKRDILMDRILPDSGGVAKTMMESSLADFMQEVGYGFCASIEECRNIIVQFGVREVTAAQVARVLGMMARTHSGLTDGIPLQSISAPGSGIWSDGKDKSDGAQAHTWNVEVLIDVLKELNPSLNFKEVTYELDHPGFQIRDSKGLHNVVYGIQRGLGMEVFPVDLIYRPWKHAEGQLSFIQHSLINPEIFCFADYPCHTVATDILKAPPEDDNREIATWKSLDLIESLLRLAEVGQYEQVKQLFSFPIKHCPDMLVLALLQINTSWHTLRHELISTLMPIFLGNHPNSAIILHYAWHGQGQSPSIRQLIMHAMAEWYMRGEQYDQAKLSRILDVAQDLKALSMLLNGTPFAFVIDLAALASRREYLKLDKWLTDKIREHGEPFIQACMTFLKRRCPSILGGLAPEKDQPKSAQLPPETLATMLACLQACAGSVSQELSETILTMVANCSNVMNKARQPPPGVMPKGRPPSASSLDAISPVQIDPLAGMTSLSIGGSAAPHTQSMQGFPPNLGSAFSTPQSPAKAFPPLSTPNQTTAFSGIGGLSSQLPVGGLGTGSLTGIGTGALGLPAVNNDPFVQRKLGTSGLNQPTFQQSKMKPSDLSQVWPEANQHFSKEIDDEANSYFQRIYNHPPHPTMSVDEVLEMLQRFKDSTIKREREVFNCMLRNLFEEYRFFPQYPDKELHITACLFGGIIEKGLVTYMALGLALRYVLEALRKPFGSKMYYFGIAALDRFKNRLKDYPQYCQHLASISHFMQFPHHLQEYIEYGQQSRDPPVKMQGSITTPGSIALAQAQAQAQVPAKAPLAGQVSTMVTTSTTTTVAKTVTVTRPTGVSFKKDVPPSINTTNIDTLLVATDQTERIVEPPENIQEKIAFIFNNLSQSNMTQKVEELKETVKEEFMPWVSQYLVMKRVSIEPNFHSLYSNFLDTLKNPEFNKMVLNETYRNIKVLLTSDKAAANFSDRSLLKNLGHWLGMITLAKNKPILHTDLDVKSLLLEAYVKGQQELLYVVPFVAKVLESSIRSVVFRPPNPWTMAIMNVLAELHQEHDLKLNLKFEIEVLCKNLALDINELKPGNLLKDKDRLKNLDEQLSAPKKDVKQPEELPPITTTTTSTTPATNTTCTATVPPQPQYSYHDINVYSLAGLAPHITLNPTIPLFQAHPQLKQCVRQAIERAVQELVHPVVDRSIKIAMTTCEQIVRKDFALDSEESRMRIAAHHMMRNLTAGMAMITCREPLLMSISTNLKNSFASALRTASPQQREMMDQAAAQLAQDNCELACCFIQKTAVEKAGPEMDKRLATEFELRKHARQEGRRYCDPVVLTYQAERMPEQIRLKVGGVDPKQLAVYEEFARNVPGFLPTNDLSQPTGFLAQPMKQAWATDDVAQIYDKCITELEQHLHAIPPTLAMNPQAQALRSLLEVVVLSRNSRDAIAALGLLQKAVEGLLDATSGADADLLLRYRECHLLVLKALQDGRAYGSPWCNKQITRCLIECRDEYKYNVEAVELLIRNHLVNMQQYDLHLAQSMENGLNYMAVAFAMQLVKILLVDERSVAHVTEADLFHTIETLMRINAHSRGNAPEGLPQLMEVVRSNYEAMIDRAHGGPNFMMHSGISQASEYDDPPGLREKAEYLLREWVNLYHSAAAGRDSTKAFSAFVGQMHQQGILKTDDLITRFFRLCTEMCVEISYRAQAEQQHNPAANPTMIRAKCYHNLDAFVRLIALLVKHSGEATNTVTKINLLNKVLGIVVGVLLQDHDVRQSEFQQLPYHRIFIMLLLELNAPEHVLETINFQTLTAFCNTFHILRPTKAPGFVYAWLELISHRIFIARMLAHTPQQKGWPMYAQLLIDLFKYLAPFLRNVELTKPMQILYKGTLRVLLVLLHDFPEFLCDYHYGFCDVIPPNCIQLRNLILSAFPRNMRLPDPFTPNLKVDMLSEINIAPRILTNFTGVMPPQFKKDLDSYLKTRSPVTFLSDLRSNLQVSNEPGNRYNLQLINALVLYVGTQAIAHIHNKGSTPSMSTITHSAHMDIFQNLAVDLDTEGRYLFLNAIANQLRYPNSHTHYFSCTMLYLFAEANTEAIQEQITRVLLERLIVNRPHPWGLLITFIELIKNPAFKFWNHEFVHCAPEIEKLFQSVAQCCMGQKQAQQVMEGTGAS

Legend:
[1] = target: T1, FLAG-tagged MARF1 fragment containing the isolated NYN domain (human) (UniProt Q9Y4F3); test: co-IP; FLAG-tagged MARF1 fragments precipitated with anti-FLAG antibody from benzonase-treated HeLa cell extracts; western blot of endogenous proteins
T1 sequence: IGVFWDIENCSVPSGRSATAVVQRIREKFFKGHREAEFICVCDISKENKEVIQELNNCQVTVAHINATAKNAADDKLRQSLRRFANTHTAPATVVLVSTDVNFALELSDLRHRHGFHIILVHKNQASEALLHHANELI

[2] = target: Full-length FLAG-BirA*-MARF1 (human) (UniProt Q9Y4F3); test: co-IP; FLAG-BirA*-MARF1 precipitated with anti-FLAG antibody from benzonase-treated HEK293 cell extracts under mild lysis and wash conditions; western blot of endogenous proteins
[3] = target: T2, FLAG-tagged MARF1 C-terminal fragment containing only the C-terminal 172 residues (human) (UniProt Q9Y4F3); test: co-IP; FLAG-tagged MARF1 fragments precipitated with anti-FLAG antibody from benzonase-treated HeLa cell extracts; western blot of endogenous proteins
T2 sequence: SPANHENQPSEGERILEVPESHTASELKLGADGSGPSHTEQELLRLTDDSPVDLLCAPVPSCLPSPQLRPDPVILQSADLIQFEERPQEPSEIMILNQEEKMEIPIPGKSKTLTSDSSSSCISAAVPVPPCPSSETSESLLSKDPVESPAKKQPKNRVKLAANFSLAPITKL

[4] = target: human MARF1 NYN domain, residues 352-500, wild type (human) (UniProt Q9Y4F3); test: SEC; size exclusion chromatography of the purified NYN domain in solution; both purified
[5] = target: human MARF1 NYN domain, residues 352-500, I391M/L457M (human) (UniProt Q9Y4F3); test: as above

Molecule: DCP2 decapping enzyme (from UniProt Q8IU60 1-420)
binding [1]: no binding
binding [2]: binds

Molecule: CNOT1, the central subunit of the CCR4-NOT deadenylase complex (from UniProt A5YKK6 1-2376)
binding [2]: no binding

B1: PATL1 (protein, UniProt Q86TB9 1-770)
chain: MFRYESLEDCPLDEDEDAFQGLGEEDEEIDQFNDDTFGSGAVDDDWQEAHERLAELEEKLPVAVNEQTGNGERDEMDLLGDHEENLAERLSKMVIENELEDPAIMRAVQTRPVLQPQPGSLNSSIWDGSEVLRRIRGPLLAQEMPTVSVLEYALPQRPPQGPEDDRDLSERALPRRSTSPIIGSPPVRAVPIGTPPKQMAVPSFTQQILCPKPVHVRPPMPPRYPAPYGERMSPNQLCSVPNSSLLGHPFPPSVPPVLSPLQRAQLLGGAQLQPGRMSPSQFARVPGFVGSPLAAMNPKLLQGRVGQMLPPAPGFRAFFSAPPSATPPPQQHPPGPGPHLQNLRSQAPMFRPDTTHLHPQHRRLLHQRQQQNRSQHRNLNGAGDRGSHRSSHQDHLRKDPYANLMLQREKDWVSKIQMMQLQSTDPYLDDFYYQNYFEKLEKLSAAEEIQGDGPKKERTKLITPQVAKLEHAYKPVQFEGSLGKLTVSSVNNPRKMIDAVVTSRSEDDETKEKQVRDKRRKTLVIIEKTYSLLLDVEDYERRYLLSLEEERPALMDDRKHKICSMYDNLRGKLPGQERPSDDHFVQIMCIRKGKRMVARILPFLSTEQAADILMTTARNLPFLIKKDAQDEVLPCLLSPFSLLLYHLPSVSITSLLRQLMNLPQSAATPALSNPHLTAVLQNKFGLSLLLILLSRGEDLQSSDPATESTQNNQWTEVMFMATRELLRIPQAALAKPISIPTNLVSLFSRYVDRQKLNLLETKLQLVQGIR
binding [1]: no binding
binding [2]: binds

B2: EDC4 (enhancer of mRNA decapping) (protein, UniProt Q6P2E9 1-1401)
chain: MASCASIDIEDATQHLRDILKLDRPAGGPSAESPRPSSAYNGDLNGLLVPDPLCSGDSTSANKTGLRTMPPINLQEKQVICLSGDDSSTCIGILAKEVEIVASSDSSISSKARGSNKVKIQPVAKYDWEQKYYYGNLIAVSNSFLAYAIRAANNGSAMVRVISVSTSERTLLKGFTGSVADLAFAHLNSPQLACLDEAGNLFVWRLALVNGKIQEEILVHIRQPEGTPLNHFRRIIWCPFIPEESEDCCEESSPTVALLHEDRAEVWDLDMLRSSHSTWPVDVSQIKQGFIVVKGHSTCLSEGALSPDGTVLATASHDGYVKFWQIYIEGQDEPRCLHEWKPHDGRPLSCLLFCDNHKKQDPDVPFWRFLITGADQNRELKMWCTVSWTCLQTIRFSPDIFSSVSVPPSLKVCLDLSAEYLILSDVQRKVLYVMELLQNQEEGHACFSSISEFLLTHPVLSFGIQVVSRCRLRHTEVLPAEEENDSLGADGTHGAGAMESAAGVLIKLFCVHTKALQDVQIRFQPQLNPDVVAPLPTHTAHEDFTFGESRPELGSEGLGSAAHGSQPDLRRIVELPAPADFLSLSSETKPKLMTPDAFMTPSASLQQITASPSSSSSGSSSSSSSSSSSLTAVSAMSSTSAVDPSLTRPPEELTLSPKLQLDGSLTMSSSGSLQASPRGLLPGLLPAPADKLTPKGPGQVPTATSALSLELQEVEPLGLPQASPSRTRSPDVISSASTALSQDIPEIASEALSRGFGSSAPEGLEPDSMASAASALHLLSPRPRPGPELGPQLGLDGGPGDGDRHNTPSLLEAALTQEASTPDSQVWPTAPDITRETCSTLAESPRNGLQEKHKSLAFHRPPYHLLQQRDSQDASAEQSDHDDEVASLASASGGFGTKVPAPRLPAKDWKTKGSPRTSPKLKRKSKKDDGDAAMGSRLTEHQVAEPPEDWPALIWQQQRELAELRHSQEELLQRLCTQLEGLQSTVTGHVERALETRHEQEQRRLERALAEGQQRGGQLQEQLTQQLSQALSSAVAGRLERSIRDEIKKTVPPCVSRSLEPMAGQLSNSVATKLTAVEGSMKENISKLLKSKNLTDAIARAAADTLQGPMQAAYREAFQSVVLPAFEKSCQAMFQQINDSFRLGTQEYLQQLESHMKSRKAREQEAREPVLAQLRGLVSTLQSATEQMAATVAGSVRAEVQHQLHVAVGSLQESILAQVQRIVKGEVSVALKEQQAAVTSSIMQAMRSAAGTPVPSAHLDCQAQQAHILQLLQQGHLNQAFQQALTAADLNLVLYVCETVDPAQVFGQPPCPLSQPVLLSLIQQLASDLGTRTDLKLSYLEEAVMHLDHSDPITRDHMGSVMAQVRQKLFQFLQAEPHNSLGKAARRLSLMLHGLVTPSLP
binding [3]: binds
binding [1]: no binding
binding [2]: binds

Next, values leading:

binding [4]: no binding
B3: human MARF1 NYN domain, residues 352-500, wild type (domain or fragment, UniProt Q9Y4F3 352-500)
chain: PIGVFWDIENCSVPSGRSATAVVQRIREKFFKGHREAEFICVCDISKENKEVIQELNNCQVTVAHINATAKNAADDKLRQSLRRFANTHTAPATVVLVSTDVNFALELSDLRHRHGFHIILVHKNQASEALLHHANELIRFEEFISDLP

binding [5]: no binding
B4: human MARF1 NYN domain, residues 352-500, I391M/L457M (domain or fragment, UniProt Q9Y4F3 352-500)
chain: B3 chain with I40M, L106M
